Data as given in the supplement of paper PMC4466236.
Whole data set: some 33,000 sequences, median “E-score (dimensionless, -0.5 to 0.5)” near -0.058, cut for the highest 2% near 0.35. The list shows a part of the results.

Tested on: MvaT
Experiment: PBM 8-mer E-score (mean of HK and ME arrays) (E-score (dimensionless, -0.5 to 0.5)); higher = stronger relative binding preference; most listed sequences are background and not binding sites
Method in brief: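 Full-length P. aeruginosa MvaT, with glutathione S-transferase fused to its N-terminus (cloned into pTH6838 by isothermal assembly), was tested by protein binding microarray using a previously described protocol. Two universal double-stranded 60-mer arrays (ME and HK) were used, each with a constant 25-mer primer region and a variable 35-mer region covering all 8-mers. The rank-based 8-mer E-score (-0.5 to 0.5) is the mean of the two arrays, parsed with a custom Python script.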

Sequence	PBM 8-mer E-score
ACCTGACC	-0.204
AAAAACAC	0.087
GACCCCAC	-0.415
CAGTGCAC	-0.013
AAGAACAC	-0.119
AAGGCTGA	-0.182
AAATTGTG	0.137
ACCGAACT	0.124
CTGGTTTC	-0.13
AGCACAAC	-0.022
ATCGCTCA	-0.078
ATTCGATG	-0.00134
CCGACCGG	-0.327
CGATGCAA	-0.0524
ATGACATA	0.116
CATAGGTA	-0.118
ATTTGAGC	0.167
ACAGCCCA	-0.183
CAAGACGA	-0.0256
ACGTTGAT	0.0529
CTGGCGGC	-0.148
AGTGTGCA	0.136
GTAGCGTA	0.0466
ATAGGGAT	0.00192
CACTGGAC	-0.115

Sequence	PBM 8-mer E-score
GCGCCTGA	-0.367
AAGCACCG	-0.14
AGTTCATA	0.181
CTTGCTTC	-0.0582
GCGAGGAC	-0.247
CGACGGAA	0.0507
GTCACAAC	0.14
CCACACAC	-0.0304
CCCCTAGA	-0.22
AGAAATCA	-0.0327
ACCGAGGC	-0.132
GACGGTCA	-0.284
GGTCTCGA	-0.126
ATGGAAAT	0.19
GGCAGCGA	-0.234
GGGATACA	0.0517
AACGCGCG	0.0917
CTCCGGAC	-0.184
CGCTTCGA	0.00173
CAGACGAA	-0.0737
GGCCAGAA	-0.026
CGAGCAAA	0.00059
AAACCGCG	-0.0579
CCGAGATA	0.025
ACAACAAA	0.275

Sequence	PBM 8-mer E-score
CCTCGGCA	-0.173
CTCTGGAA	-0.0543
ACTACTTA	0.377
TCCCGGGA	-0.118
GGGAAATA	0.243
CTATCTGC	-0.126
CCCGCAGC	-0.265
GCCACGTA	-0.118
GATCGCAA	-0.0666
CAACGGCA	-0.199
GGCAGTTA	0.201
AAATGAAC	0.132
CATGCTTC	-0.108
CGCGGTCC	-0.214
CAGCTACG	-0.271
GACAGATA	0.15
GTCATTAA	0.116
CCTAGCAG	-0.214
CTACGCAA	-0.0595
AGTCTTAT	0.263
AGTTTACG	0.00749
GTTGGTTA	0.165
AGCCACGA	-0.0643
AGTGATGG	-0.129
CACCTGGG	-0.234

Sequence	PBM 8-mer E-score
AGGATAAC	0.102
ATCGATAC	0.113
AGGCCATA	-0.16
ACTTAGTG	0.218
TAGAAAAA	0.0922
AACTATGA	0.291
GAACGTCC	-0.275
CCATCGAC	-0.0705
ATGGTAAC	0.0827
GGTCGATA	-0.0301
CGACTCCA	-0.0608
GAGATGAC	-0.248
CCCCATCG	-0.138
CGGACATA	0.0773
ATACGGCC	-0.118
CCATCTGC	-0.15
AACCAGAC	-0.165
GCCAAATA	0.0496
GTGGTGCA	-0.128
GCCGATCC	-0.286
AGTGCAAC	-0.00465
CGCAATAC	0.0362
GAGCATCC	-0.325
AAACGCAA	0.199
GTGCTCGA	-0.153

Sequence	PBM 8-mer E-score
GTGTGGTA	0.118
GACTTTGA	-0.0787
CCCAGTGA	-0.0637
ATAATATC	0.437
AAGTCGGG	-0.0449
CCCAGTTA	0.0279
CACATGTA	0.166
ACCGCCCG	-0.146
CTGTATTA	0.36
AGTCTCAT	-0.00927
CGTTGGTA	0.0173
CTCGACAC	-0.149
CTATTGGA	0.0218
CTAGGGAA	-0.0329
GGATAGTA	0.128
CTGATTAC	0.0726
GTCACCGA	-0.18
CCGTAGGC	-0.302
GACAGCCC	-0.303
ACATGCAC	0.0853
TATTAGCA	0.276
CACGGTAA	0.0547
CATTACGG	0.00765
GGTCTAGA	-0.0778
GCGCATAC	0.0328

Sequence	PBM 8-mer E-score
ACGTCTAA	-0.058
CCTTTTCG	-0.053
ATCTAAAG	0.171
AGTTGCCG	-0.0999
CCGTTCAG	-0.137
CTTAGGCC	-0.17
CTCCCCAA	-0.229
AATTATTA	0.438
CTCCTCAA	-0.132
CGCTAGCC	-0.189
GTTCCCAA	-0.0583
CCGATATA	0.333
GCGCAACC	-0.0969
CGCAACAC	-0.112
CCGTCCAG	-0.194
GCTAAGCC	-0.234
GTGCCATA	-0.0269
GATGATGC	-0.077
TAACGCAA	0.195
CCGCGTAG	-0.238
GGATACTA	0.0363
ACACAGGC	-0.0277
GAACGTTA	0.207
GATCCCCC	-0.341
GGAACCAA	0.047

Sequence	PBM 8-mer E-score
AAGAGTGG	-0.155
CTGCTGCA	-0.218
CGCAGAAC	-0.11
CATTTCGG	-0.024
GAAACACA	0.0961
GACCCATC	-0.249
CGCGGAAA	0.0617
CAGCGACA	-0.0735
ACGGATAA	0.0259
CCACTTCC	-0.201
AGTTTGAC	0.12
ATCAAGAC	-0.0263
AACTTTGA	0.247
ACCCGTCG	-0.0362
AGGAAAGA	-0.097
CGCATCTC	-0.202
AGCACTCG	-0.164
AGTCCTGG	-0.086
CCATCCTC	-0.277
CAAAGATG	0.0517
TCCTCGCA	-0.126
ATGGAAAG	0.0412
GCAACCGC	-0.234
ACGCAAGA	-0.00773
GATTGGAA	0.0482

Sequence	PBM 8-mer E-score
GATACTAA	0.213
AAGTCATA	0.209
AGAGGGGA	-0.144
GTCTCACA	-0.052
AACCGGCG	-0.083
CCGTTTCA	-0.0886
ACAGGTTG	-0.21
CCACGCTA	-0.0651
CAGTGTCA	-0.168
TACATAGA	0.143
AGCCTCCG	-0.33
CTCTACGA	-0.163
AAATGCTA	0.142
AGAATATA	0.378
AACGGGCA	-0.142
AATGCATC	0.0818
GGCCGACC	-0.225
TATGCAAA	0.261
ACGATTCA	-0.0465
AGGGTAAT	0.102
CGCTCCCC	-0.404
TCCTCAAA	0.0105
ATATATGG	0.42
ACCATATC	0.099
AGGTTAAA	0.0501

Sequence	PBM 8-mer E-score
CGAGGGCG	-0.305
ACACAGAC	-0.0322
AGTACATA	0.238
GCAGTTCC	-0.18
ATTCTCAA	0.128
CAGCTTGA	-0.207
AGTCTAAG	0.098
CTAGTTGA	0.122
CCCTGTAA	-0.128
CCTCGTCA	-0.079
ACTCAGTG	-0.0225
AATTAGAG	0.155
AAAAAGCT	0.0209
CTCACTAC	-0.115
AGGTATAT	0.201
ACAAGCCT	-0.0491
TAGTGACA	0.0242
GGTAGCTA	-0.118
AGATAAGG	0.136
AGGGGATC	-0.201
ATTGTCAG	0.0673
AGCGACCC	-0.187
GTCTGCAA	-0.153
AGCCGCAG	-0.199
GAGAGACA	-0.166

Sequence	PBM 8-mer E-score
CGTAATCC	-0.0891
ACTGTACC	-0.0921
ACGCTTAG	-0.188
AATCGTCT	0.0741
AGACTACA	-0.0489
CAGGTTCG	-0.252
AGTGTATG	0.185
AGGCGTCA	-0.231
TTAAGTAA	0.328
CTAAGGAC	-0.191
ATTTATGC	0.199
GACAAAAC	0.146
CGGGGACC	-0.345
AAGCATTC	-0.126
ATTCCGAG	0.0144
AATACGTC	0.0932
CTTACGCA	-0.158
CGGAGGCC	-0.314
CACTGGCA	-0.237
TCATACAA	0.0994
CCAGCTCG	-0.233
ATATTCTG	0.292
CTATTGAA	0.184
ACTTGTCC	-0.0551
ATTAGCGA	0.131

Sequence	PBM 8-mer E-score
ATTACATC	0.146
CTAAGGTA	0.0908
CAACAGCC	-0.26
CCGGTACA	-0.0915
ATGTCATC	0.0569
CACGAAGA	0.0533
ACAGGTGC	-0.152
ACTGATGG	-0.198
AGTGCCAG	-0.101
ACGTAGTA	0.0425
ACGGGCGA	-0.0803
GACGAATA	0.133
CGTACAGA	-0.103
ATCTTCAA	0.0478
AATATGAG	0.139
AAGGAATG	0.0374
ACCTCAGC	-0.296
CTTGCCGA	-0.128
CCGCACCG	-0.226
ATTAGCTC	0.133
ATAACCTA	0.182
ACACGCTC	-0.0374
GGGGCGCA	-0.229
ACATTGAA	0.157
ATCTAGCC	-0.019

Sequence	PBM 8-mer E-score
CAGACTCG	-0.268
GGGCCTGA	-0.257
CACTCGCC	-0.125
AGGGCATG	-0.207
AGCCTACA	-0.0198
ACCGTGAA	-0.075
ACACAGGG	-0.0395
GGGCTTGA	-0.222
CCAATTGC	0.0733
GCCGAACA	-0.116
TTCAACAA	0.237
CCAACTAG	-0.0215
TGCTGTAA	0.119
CATGGCAA	0.015
AACCTGAA	0.0158
AAATTATT	0.401
AAGTAGAC	0.0778
CCCGAATA	0.0948
GATAGAGC	-0.133
CGTGGGAA	-0.124
GTATTAAC	0.39
AAAGTTCA	0.322
ACTTTACG	0.181
TGCCAAAA	-0.000748
CGGCACGC	-0.242

Sequence	PBM 8-mer E-score
ACCTTGCT	-0.104
ATATGGAT	0.172
TAGCGGAA	-0.0464
ATCCACTG	-0.0232
ACAGCTAG	-0.154
CTGTCTTC	-0.0201
CAAAGCAC	-0.0298
ACTTCGGG	-0.0146
AAAGTCCC	-0.0992
GGGGATCA	-0.288
CCATTTAC	0.0906
ATTTAGCC	0.0285
AAGGGATT	0.0714
ACTGAGGA	-0.12
ACCCAGCG	-0.163
AAAGAGGT	0.0575
ACCACTAT	0.0969
ATTTACGG	0.061
GATACAAC	0.0196
AGCAGATA	0.0571
CTTGCATA	0.204
GACTCAAC	-0.174
ATTTTGAA	0.222
CACCGTCG	-0.28
TGCATGAA	-0.078

Sequence	PBM 8-mer E-score
CCACTAAC	0.0983
AGAAGCAG	-0.127
CATAGTGG	0.00667
TATCGCGA	0.0272
ACCAACTG	0.096
AGATCGTC	-0.113
CTCTGGTA	-0.0293
AGCCGTGG	-0.207
ACAAGGTG	-0.176
GACGAGGA	-0.172
GACATTAC	0.143
AGGCCGAA	-0.0967
GGCGATAA	0.137
CACATCCC	-0.0535
ATGATGAA	0.0852
AGCCTGGA	-0.185
AATCCCTA	0.0407
AGGGCTAG	-0.198
ACTATCCT	0.069
